In all, about 410,000 compounds went through this assay and about 6,400 (1.6%) were called active. The inconclusive results got no clear call from the source; some entries with a clear call stand among them for comparison. Calls follow the shape of the dose curve; as a rule, active = well fitted inhibition curve with a large enough effect; inconclusive = small, poorly fitted or top-dose-only effect; inactive = no such curve, though single readings can be large or run the other way. No potency is given beside an inconclusive call; the fits are too rough.
Target: Glucagon-like peptide 1 receptor (Homo sapiens) (UniProt P43220)
Test: qHTS of GLP-1 Receptor Inverse Agonists (Inhibition Mode); also: nearly all actives have a fitted effect of over 55% in size
Conditions: HEK293 GLP-1R CRE-luciferase, luminescence, 24 h, GLP-1R form is constitutively active; activity change, negative = inhibition: at 38.3 µM (top of the series) unless noted
Method in brief: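 Inverse agonists were sought by their lowering of basal cAMP reporter luciferase output in HEK293 cells stably carrying constitutively active human GLP-1R, after 24 h compound treatment.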
% is scaled to controls: 0 for no effect and ±100 for the full control effect; potency is read from the fitted curve at half-maximal effect; tags tell the direction and shape of the fitted curve.

UniProt P43220, sequence (P43220 whole entry, looked up): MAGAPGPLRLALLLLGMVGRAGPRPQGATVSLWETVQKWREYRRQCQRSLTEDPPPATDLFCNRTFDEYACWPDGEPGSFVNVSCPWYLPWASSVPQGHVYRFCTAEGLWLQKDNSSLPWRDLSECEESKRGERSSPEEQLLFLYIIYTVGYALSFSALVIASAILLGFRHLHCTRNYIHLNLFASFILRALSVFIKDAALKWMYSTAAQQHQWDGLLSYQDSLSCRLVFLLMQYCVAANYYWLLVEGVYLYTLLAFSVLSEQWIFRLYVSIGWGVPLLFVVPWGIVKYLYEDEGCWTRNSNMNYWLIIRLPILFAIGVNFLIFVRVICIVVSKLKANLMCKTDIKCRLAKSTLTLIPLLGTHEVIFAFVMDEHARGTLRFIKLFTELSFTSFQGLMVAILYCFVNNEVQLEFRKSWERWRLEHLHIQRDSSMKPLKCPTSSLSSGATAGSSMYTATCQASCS

SMILES | Potency | activity change, negative = inhibition
CCOC(=O)c1sc(C)c2c(=O)n(Cc3ccc(Cl)cc3)c(C)nc12 | inconclusive [inhibitor, partial curve, poor fit] | 
CC(CC(=O)Nc1ccc2c(c1)c(=O)n(C)n2-c1ccccc1F)c1ccccc1 (stereo unspecified) | inconclusive [inhibitor, full curve, poor fit] | 
O=C(OCc1ccccc1)N1CCC2CC1c1ccc(-c3ccc4c(c3)OCO4)cc12 (stereo unspecified) | inconclusive [inhibitor, single point] | 
O=C(NCCc1ccccc1)C1CCN(c2nc3ccccc3o2)CC1 | inconclusive [inhibitor, full curve] | 
O=C(Cn1c(NCCO)nc2ccccc21)c1ccc(Cl)cc1Cl |  | inconclusive: -81.5% [inhibitor]
CCN(CC)c1ccc(C2C3CCCCC3(O)CCN2C(=O)c2cccs2)cc1 (stereo unspecified) | inconclusive [inhibitor, partial curve, poor fit] | 
CN(CCOc1ccc(Cl)cc1)C(=O)c1cc(S(=O)(=O)N2CCOCC2)ccc1N1CCCC1 | inconclusive [inhibitor, single point] | 
Cc1cc(C(=O)NNc2ccc(Cl)cc2)no1 | inconclusive [inhibitor, full curve, poor fit] | 
Cc1cc(S(=O)(=O)NC2CCCC2)ccc1F | inconclusive [inhibitor, full curve, poor fit] | 
COc1cccc(C(O)c2nc(-c3ccccc3C)cs2)c1 (stereo unspecified) | inconclusive [inhibitor, partial curve, poor fit] | 
CN1Cc2sc(NC(=S)NC(=O)c3ccccc3)c(C#N)c2CC1(C)C | inconclusive [inhibitor, partial curve, poor fit] | 
O=C(CC1CCCC1)Nc1ccc2c(c1)CCC2 | inconclusive [inhibitor, single point] | 
Cc1ccc(Cn2c(O)c(N=O)c3ccccc32)cc1 | inconclusive [inhibitor, single point] | 
CC(CNC(=O)Cn1ccc2cc(S(=O)(=O)N3CCCCC3)ccc21)c1ccccc1 (stereo unspecified) | inconclusive [inhibitor, single point] | 
C=CC[C@H](CC(=O)N(CCO)Cc1ccccc1)C(=O)NCCOC(=O)[C@@H](CC=C)Cc1ccc(F)cc1 | inconclusive [inhibitor, partial curve, poor fit] | 
O=Cc1cccn1Cc1ccc(Cl)cc1Cl | inconclusive [inhibitor, partial curve, poor fit] | 
CC1CCCN(C(=O)c2ccc(Cl)c(S(=O)(=O)N3CCCCCC3)c2)C1 (stereo unspecified) | inconclusive [inhibitor, single point] | 
COc1ccc(C(O)(C2CCCCC2)C(CN2CCCC2)c2ccccc2)cc1 (stereo unspecified) |  | inconclusive: -89.9% [inhibitor]
O=C1CS/C(=N/N=C/c2ccccc2)N1Cc1ccco1 | inconclusive [inhibitor, partial curve, poor fit] | 
COc1cccc(NC(=O)CN(C)S(=O)(=O)c2ccc3c(c2)NC(=O)CS3)c1 |  | inactive: -24.6%
Fc1ccc(C(c2nnnn2Cc2cccs2)N2CCN(C3CCCC3)CC2)cc1 (stereo unspecified) | inconclusive [inhibitor, partial curve, poor fit] | 

SMILES | Potency | activity change, negative = inhibition
C/C(=N/NC(=O)c1nnn(-c2nonc2N)c1COc1ccccc1)c1ccccc1Cl | inconclusive [inhibitor, partial curve, poor fit] | 
CCOC(=O)c1c(S(=O)(=O)Nc2ccc(F)cc2Cl)c(C)n(C)c1C | inconclusive [inhibitor, partial curve, poor fit] | 
Cc1ccc(C2CCN(C(=S)Nc3cccc(Cl)c3)C2)cc1 (stereo unspecified) | inconclusive [inhibitor, single point] | 
COc1cccc(CNCCSc2nnnn2C)c1OCc1ccc(Cl)cc1Cl | inconclusive [inhibitor, single point] | 
COc1ccccc1CNC(=O)Cn1c(=O)oc2cc(S(=O)(=O)N3CCC(C)CC3)ccc21 | inconclusive [inhibitor, single point] | 
CC(C)CC(=O)NC(NC(=S)Nc1sc2c(c1C#N)CCCC2)C(Cl)(Cl)Cl (stereo unspecified) | inconclusive [inhibitor, partial curve, poor fit] | 
COc1ccc(NC(=S)Nc2ccc(Oc3ccccc3)cc2)cc1 | inconclusive [inhibitor, partial curve, poor fit] | 
CCOc1ccc(C(=O)CC(NCc2cccs2)C(=O)O)cc1 (stereo unspecified) | inconclusive [inhibitor, partial curve, poor fit] | 
O=C(CCl)N(CCc1ccccc1)CCc1ccccc1 | inconclusive [inhibitor, partial curve, poor fit] | 
CN(C)C(CNC(=O)c1ccc(-c2ccccc2)cc1)c1ccccc1 (stereo unspecified) | inconclusive [inhibitor, partial curve, poor fit] | 
CCc1nc(Nc2cccc(F)c2)c2oc3ccccc3c2n1 | inconclusive [inhibitor, single point] | 
O=c1c2ccccc2nc(-c2ccccc2)n1Cc1ccc(Cl)cc1 | inconclusive [inhibitor, partial curve, poor fit] | 
COC(=O)c1cccc(COC(=O)c2ccc(N(C)C)cc2)c1 | inconclusive [inhibitor, single point] | 
CN(CC(=O)N1CCN(c2ccccc2)CC1)C1CCCc2ccccc21 (stereo unspecified) | inconclusive [inhibitor, partial curve, poor fit] | 
CCOc1ccc(NC(=O)Cc2coc3ccc(C)cc23)cc1 | inconclusive [inhibitor, single point] | 
Cc1cc(C)cc(OCC(=O)OC/C(O)=C(\C#N)c2nc3ccccc3[nH]2)c1 | inconclusive [inhibitor, partial curve] | 
O=C(COc1ccc(Cl)cc1Br)NCC(c1ccco1)N1CCCC1 (stereo unspecified) | inconclusive [inhibitor, single point] | 
Cc1ccc(O)c(CNCCNCc2cc(C)ccc2O)c1 | inconclusive [inhibitor, partial curve, poor fit] | 
Cc1cc(OCC(=O)NNC(=O)c2cnccn2)cc(C)c1Cl | inconclusive [inhibitor, partial curve] | 
Cn1cc(S(=O)(=O)c2ccccc2)c(=O)c2cc(F)c(N3CCOCC3)cc21 | inactive | 
CCN(CC(=O)Nc1ccccc1C(F)(F)F)C(=O)c1ccc2[nH]c3c(c2c1)CC(C)CC3 (stereo unspecified) | inconclusive [inhibitor, partial curve, poor fit] | 

SMILES | Potency | activity change, negative = inhibition
Cc1ccc(-c2csc(C(O)c3cccc(Cl)c3)n2)cc1C (stereo unspecified) | inconclusive [inhibitor, single point] | 
O=C(CN1CCN(Cc2ccccc2Cl)C1=O)NCc1ccccc1Cl | inconclusive [inhibitor, single point] | 
O=C(c1ccc(F)cc1F)N1CCCC(c2nc(-c3ccc(F)cc3)no2)C1 (stereo unspecified) | inconclusive [inhibitor, partial curve] | 
Cn1nc(-c2ccc(Cl)cc2)c2cc(C(=O)NCCCN3CCCC3)sc21 | inconclusive [inhibitor, single point] | 
CCOc1cc(C(=O)Nc2ccc3c(c2)OCO3)ccc1OC(F)F |  | inactive: 71.5%
CC1C/C(=N\NC(=O)c2cccnc2)CC(C)(C)C1 (stereo unspecified) |  | inactive: 5.07%
CC(=O)c1cccc(NC(=O)Cn2c(SCC(=O)Nc3ccc(F)cc3)nc3ccccc32)c1 | inconclusive [inhibitor, partial curve, poor fit] | 
N#Cc1ccc(CSC2=NCCN2)cc1 | inconclusive [inhibitor, partial curve, poor fit] | 
C[C@]1(O)CC(=O)C=C[C@H]1Nc1ccccc1 | inconclusive [inhibitor, single point] | 
CC1=Nc2cc(C(=O)N3CCCC3)ccc2Sc2c(C)ccc(C)c21 | inconclusive [inhibitor, full curve, poor fit] | 
O=C(C=Cc1ccccc1)CC(c1ccccc1)N1CCOCC1 (stereo unspecified) | inconclusive [inhibitor, single point] | 
CCN(CC)CCOC(=O)c1ccc(NC(=O)c2ccc(Cl)c(S(=O)(=O)N3CCCCCC3)c2)cc1 | inconclusive [inhibitor, partial curve, poor fit] | 
CCn1c2ccccc2c2cc(NC(=O)CSc3nnc(-c4ccccc4OC)n3N)ccc21 | inconclusive [inhibitor, single point] | 
COc1ccccc1OCC(=O)Nc1ccccn1 | inconclusive [inhibitor, single point] | 
O=[N+]([O-])c1ccc(N/N=C/c2cccc(O)c2)cc1 | inconclusive [inhibitor, single point] | 
O=C(Nc1nc(-c2ccc(Br)cc2)ns1)c1ccc(F)cc1 |  | inactive: 5.49%
Cc1ccc2oc(C(=O)N(CCO)Cc3ccccc3)c(C)c2c1 | inconclusive [inhibitor, single point] | 
Cc1cc(F)ccc1S(=O)(=O)Nc1ccccc1C(=O)NC1CCN(Cc2ccccc2)CC1 | inconclusive [inhibitor, partial curve, poor fit] | 
Cc1cc(/C([O-])=C(/C(=S)Nc2ccc(F)cc2)[n+]2ccccc2)c(C)n1Cc1ccccc1Cl | inconclusive [inhibitor, full curve] | 

— PubChem BioAssay AID624417 (National Center for Advancing Translational Sciences (NCATS), 2012)
